# PubChem BioAssay AID485281 (National Center for Advancing Translational Sciences (NCATS), 2010)
# Where “and” joins values, the source holds several entries; their conditions need not be identical. Equal values may be shown once. Hit rate of the full screen: of about 350,000 compounds, about 260 (0.074%) were called active. The inconclusive results got no clear call from the source; some entries with a clear call stand among them for comparison. Calls come from the whole dose curve; as a rule, active = well fitted inhibition curve with a large enough effect; inconclusive = small, poorly fitted or top-dose-only effect; inactive = no such curve, though single readings can be large or run the other way. A potency beside an inconclusive call is a rough fit, not a confirmed value.
# Biological target: Ferritin light chain (Equus caballus) (UniProt P02791)
# Assay: qHTS Assay for Identification of Novel General Anesthetics; note: nearly all actives have a fitted effect of over 20% in size
# Conditions: apoferritin/1-aminoanthracene competitive binding, fluorescence; activity change, negative = displacement: at 77.5 µM (top of the series)
# In short: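 Probe: 1-aminoanthracene (50% saturated, PBS). Protein: horse-spleen apoferritin, 10 uM. Incubation: 10 min, room temperature. Detection: 380 nm excitation, 535 nm emission. Analysis: normalized response, four-parameter Hill.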
# % is set by controls: 0 for no effect and ±100 for the full control effect; potency is the fitted concentration of half-maximal effect; tags give direction and shape of the fitted curve.
# UniProt P02791, sequence (P02791 whole entry, looked up): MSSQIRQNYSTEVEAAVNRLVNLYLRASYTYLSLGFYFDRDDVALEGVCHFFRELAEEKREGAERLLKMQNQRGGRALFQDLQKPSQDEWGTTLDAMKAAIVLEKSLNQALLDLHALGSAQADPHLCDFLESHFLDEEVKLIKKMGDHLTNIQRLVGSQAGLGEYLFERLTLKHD
SMILES,"activity change, negative = displacement",Potency
O=C1C(=O)c2cccc3cccc1c23,inactive: -10.6%,–
Nc1ccc(Oc2cccc(Oc3ccc(N)cc3)c2)cc1,–,"inconclusive: 14.1 µM [inhibitor, partial curve]"
Cc1ccc(CSCCNS(=O)(=O)c2ccc([N+](=O)[O-])cc2)cc1,–,"inconclusive: 22.4 µM [inhibitor, partial curve]"
CCOC(=O)c1c(C)[nH]c(C(=O)C(Cc2ccccc2)N(C)C)c1C (configuration not stated),–,"inconclusive: 39.8 µM [inhibitor, single point]"
CCCCNC(=O)Nc1ccc(C(O)(C(=O)OC)C(F)(F)F)cc1 (configuration not stated),–,"inconclusive: 35.5 µM [inhibitor, single point]"
Cc1ccc(-c2ccc(=O)n(CCC(=O)N3CCC4(CC3)OCCO4)n2)cc1,–,"inconclusive: 22.4 µM [inhibitor, partial curve]"
CCCCCCOc1ccc(CN2CCN(CCO)CC2)cc1,–,"inconclusive: 15.8 µM [inhibitor, partial curve]"
CC(=O)Nc1ccc(NC(=O)CN(c2ccc(C34CC5CC(CC(C5)C3)C4)cc2)S(C)(=O)=O)cc1,–,"inconclusive: 20 µM [inhibitor, partial curve]"
C=CCc1c(C)[nH]c(=S)c(C#N)c1C,–,"inconclusive: 44.7 µM [inhibitor, single point]"
CCCCNC(=O)Nc1ccc(C(O)(C(=O)OCC)C(F)(F)F)cc1 (configuration not stated),–,"inconclusive: 31.6 µM [inhibitor, partial curve]"
CCn1c(O)c(C=NCc2cccs2)c(=O)n(CC)c1=S,–,"inconclusive: 35.5 µM [inhibitor, partial curve]"
N[C@@H](Cc1c[nH]c2ccccc12)c1nnc(SCc2ccc(Cl)cc2)o1,–,"inconclusive: 35.5 µM [inhibitor, partial curve]"
CC/C(=N\N1CCCCCC1)c1c(O)n(-c2ccc(C)cc2)c(=O)[nH]c1=O,–,"inconclusive: 31.6 µM [inhibitor, single point]"
O=C1CC(=O)N(Cc2ccccc2)C(=S)N1,inactive: 3.07%,–
CCN(CC)C(=O)c1ccc(NC(=O)c2cccc(F)c2)cc1,–,"inconclusive: 44.7 µM [inhibitor, partial curve]"
c1ccc2c(CNC3CCCCCC3)c[nH]c2c1,inactive: -18.3%,–
Cc1cccc(N2C(=O)NC(=O)/C(=C\c3ccc4c(c3)CCCN4Cc3ccccc3)C2=O)c1,inactive: -8.34%,–
CN=C(SCc1ccccc1)c1c(O)n(C)c(=O)n(C)c1=O,–,"inconclusive: 35.5 µM [inhibitor, single point]"
CN1C(=O)N(C)C(=O)C2(Cc3cc(N)ccc3N3CCN(c4ccccc4F)CC32)C1=O (configuration not stated),–,"inconclusive: 25.1 µM [inhibitor, partial curve]"
COc1ccc(N/N=C/c2c(O)n(-c3ccc(C)c(C)c3)c(=O)[nH]c2=O)cc1,–,"inconclusive: 50.1 µM [inhibitor, single point]"
Cc1ccc(-c2ccc(=O)n(CC(=O)N3CCC4(CC3)OCCO4)n2)cc1,–,"inconclusive: 5.01 µM [inhibitor, full curve]"

SMILES,"activity change, negative = displacement",Potency
CCCCCCCCCCCCSCCOCCO,–,"inconclusive: 31.6 µM [inhibitor, single point]"
Cc1ccc(-n2nc3c(N4CCC(C(=O)NCc5ccccc5Cl)CC4)nnc(C)c3c2C)cc1,–,"inconclusive: 3.98 µM [inhibitor, full curve]"
O=C1NC(=S)N(c2ccccc2F)C(=O)/C1=C\c1cccs1,inactive: -8.31%,–
CCN(CC)C(=O)Oc1ccc(Cl)c2ccccc12,–,"inconclusive: 12.6 µM [inhibitor, partial curve]"
N[C@@H](Cc1c[nH]c2ccccc12)c1nnc(SCc2ccc(F)cc2)o1,–,"inconclusive: 35.5 µM [inhibitor, partial curve]"
CC(=O)OC1(c2ccc(C)cc2)CN2CCC1c1ccccc12 (configuration not stated),inactive: -8.1%,–
O=C(Nc1cccc(C(F)(F)F)c1)C1CCCN1S(=O)(=O)c1cccc2nsnc12 (configuration not stated),–,"inconclusive: 28.2 µM [inhibitor, partial curve]"
CN1CCC(OC(=O)Cc2ccccc2)CC1,inactive: -1.61%,–
O=C1NC(=O)[C@]2(Cc3ccccc3N3CCN(c4ccccc4)CC32)C(=O)N1Cc1ccccc1 (some centres not stated),–,"inconclusive: 25.1 µM [inhibitor, partial curve]"
CCOC(=O)c1ccc(NC(=O)CSc2cc(=O)n(CC)c3ccccc23)cc1,–,"inconclusive: 11.2 µM [inhibitor, full curve, poor fit]"
COC(=O)Nc1ccc(Cl)c(Cl)c1,–,"inconclusive: 25.1 µM [inhibitor, partial curve]"
CC(=O)c1c(O)c(C)c(O)c(Cc2c(O)c3c(c(C(=O)/C=C/c4ccccc4)c2O)OC(C)(C)C=C3)c1O,–,"inconclusive: 20 µM [inhibitor, partial curve] and inconclusive: 28.2 µM [inhibitor, partial curve]"
Cc1cccc(N2C(=O)NC(=O)/C(=C/c3ccc(N4CCOCC4)cc3)C2=O)c1,–,"inconclusive: 28.2 µM [inhibitor, single point]"
CCN(CC)CCSc1nc2ccccc2c(=O)n1-c1ccc(Cl)cc1,–,"inconclusive: 35.5 µM [inhibitor, partial curve]"
CCOC(=O)c1c(N)n(CCN2CCCCC2)c2nc3ccccc3nc12,inactive: 408%,–
CCCNC(=O)c1cnn2c(C)c(Cc3c(C)cc(C)cc3C)c(C)nc12,–,"inconclusive: 50.1 µM [inhibitor, single point]"
Cc1cccc(C)c1OC(=O)Cc1ccccc1,–,"inconclusive: 25.1 µM [inhibitor, partial curve]"
Nc1ccc2c(c1)oc1ccccc12,–,"inconclusive: 25.1 µM [inhibitor, partial curve]"
C=CCn1c(=O)c(C=Nc2cccc([N+](=O)[O-])c2)c(O)n(CCCC)c1=O,–,"inconclusive: 50.1 µM [inhibitor, single point]"
O=C(O)/C=C\C(=O)Nc1ccc(Oc2ccc(Br)cc2)cc1,–,"inconclusive: 11.2 µM [inhibitor, partial curve]"
COc1ccc(CCNCc2ccccc2)cc1,inactive: 9.36%,–
